Laboratory results as given in the supplement of paper PMC4967469.

Key:
Assay in all cases: Viability of human cancer cell lines after 72 h of drug (GDSC screen)
[1] = compound: CC/C(=C(\c1ccccc1)c1ccc(OCCN(C)C)cc1)c1ccccc1 [Tamoxifen]; conditions: top dose 5 µM
Procedure: (§1)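 Human cancer cell lines in 384-well plates, medium with 10% serum, drug for 72 h over a 256-fold dose range (nine 2-fold or five 4-fold steps up to the top dose). Adherent lines were fixed and stained with the nucleic acid dye Syto60, suspension lines read with resazurin; signal relative to control wells, capped at 0 and 100%. One two-parameter sigmoid per drug and line, fitted in a mixed model over all curves with the slope shared within a line.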

[2] = compound: CCCC(=O)OCc1ccc(OC(=O)/C=C(C)/C=C/C=C(C)/C=C/C2=C(C)CCCC2(C)C)cc1 [VNLG/124]; conditions: top dose 5.12 µM; top dose inferred
Procedure: as §1

[3] = compound: CN(NC(=O)CC(=O)NN(C)C(=S)c1ccccc1)C(=S)c1ccccc1 [Elesclomol]; conditions: top dose 0.2 µM; top dose inferred
Procedure: as §1

[4] = compound: COc1cc(N2CCC(C(N)=O)CC2)ccc1Nc1nc(N)c(Cl)c(Nc2ccccc2S(=O)(=O)C(C)C)n1 [HG-5-88-01]; conditions: top dose 10 µM; top dose inferred
Procedure: as §1

[5] = compound: Cc1c(N)nc([C@H](CC(N)=O)NC[C@H](N)C(N)=O)nc1C(=O)N[C@H](C(=O)N[C@H](C)[C@@H](O)[C@H](C)C(=O)N[C@H](C(=O)NCCc1nc(-c2nc(C(=O)NCCC[S+](C)C)cs2)cs1)[C@@H](C)O)[C@@H](OC1OC(CO)C(O)C(O)C1OC1OC(CO)C(O)C(OC(N)=O)C1O)c1cnc[nH]1 [Bleomycin]
Procedure: as §1

[6] = compound: Cc1ccc(NC(=O)c2ccc(CN3CCN(C)CC3)cc2)cc1Nc1nc(-c2cccnc2)cs1 [Masitinib]; conditions: top dose 20 µM
Procedure: as §1

[7] = compound: O=C(/C=C/c1ccc(CN(CCO)CCc2c[nH]c3ccccc23)cc1)NO [LAQ824]; conditions: top dose 1.024 µM; top dose inferred
Procedure: as §1

[8] = compound: O=C(Nc1ccc(OC(F)(F)F)cc1)c1sccc1NCc1ccnc2ccccc12 [OSI-930]; conditions: top dose 10.24 µM
Procedure: as §1

[9] = compound: O=C(Nc1cccc(Nc2ncc(Br)c(NCCc3cnc[nH]3)n2)c1)N1CCCC1 [BX-912]; conditions: top dose 10.24 µM; top dose inferred
Procedure: as §1

[10] = compound: O=S(=O)(O)c1ccc2cc(N=Nc3cc(S(=O)(=O)O)c4cccnc4c3O)ccc2c1 [NSC-87877]; conditions: top dose 16 µM; top dose inferred
Procedure: as §1

[11] = top dose 50 µM, screen: GDSC drug entry 1378, top dose inferred
[12] = top dose 64 µM, screen: GDSC drug entry 190

Row | Cell Line | AUC [1] | IC50 [1] [µM] | AUC [2] | IC50 [2] [µM] | AUC [3] | IC50 [3] [nM] | AUC [4] | IC50 [4] [µM] | AUC [5, 11] | IC50 [5, 11] [µM] | AUC [5, 12] | IC50 [5, 12] [µM] | AUC [6] | IC50 [6] [µM] | AUC [7] | IC50 [7] [nM] | AUC [8] | IC50 [8] [µM] | AUC [9] | IC50 [9] [µM] | AUC [10] | IC50 [10] [µM]
1 | SHP-77 (small cell lung carcinoma, semi-adherent) | 0.991 | > 5 | 0.992 | > 5.12 | 0.954 | > 200 | 0.964 | > 10 | 0.88 | 42.3 | 0.937 | > 64 | 0.903 | > 20 | 0.56 | 91.4 | 0.961 | > 10.2 | 0.981 | > 10.2 | 0.991 | > 16
2 | KYSE-220 (oesophagus, adherent) | 0.984 | > 5 | 0.974 | > 5.12 | 0.785 | 91 | 0.912 | > 10 | 0.071 | < 0.195 | 0.246 | 0.709 | 0.93 | > 20 | 0.5 | 63.9 | 0.986 | > 10.2 | 0.852 | 8.65 | 0.976 | > 16
3 | KMRC-20 (kidney, adherent) | 0.986 | > 5 | 0.987 | > 5.12 | 0.396 | 6.45 | 0.982 | > 10 | 0.663 | 8.95 | 0.797 | 30.8 | 0.928 | > 20 | 0.657 | 176 | 0.98 | > 10.2 | 0.979 | > 10.2 | 0.979 | > 16
4 | RH-1 (rhabdomyosarcoma, adherent) | 0.991 | > 5 | 0.984 | > 5.12 | 0.754 | 57.5 | 0.666 | 1.66 | 0.05 | < 0.195 | 0.115 | 0.32 | 0.883 | 15.4 | 0.432 | 43.1 | 0.979 | > 10.2 | 0.334 | 0.241 | 0.98 | > 16
5 | SCC-4 (head and neck, adherent) | 0.979 | > 5 | 0.982 | > 5.12 | 0.894 | > 200 | 0.933 | > 10 | 0.773 | 23.1 | 0.41 | 2.17 | 0.984 | > 20 | 0.409 | 34.2 | 0.973 | > 10.2 | 0.976 | > 10.2 | 0.94 | > 16
6 | NTERA-2 cl.D1 (testis, adherent) | 0.908 | > 5 | 0.959 | > 5.12 | 0.562 | 18.4 | 0.689 | 2.1 | 0.059 | < 0.195 | 0.026 | < 0.25 | 0.884 | > 20 | 0.318 | 20 | 0.982 | > 10.2 | 0.838 | 6.82 | 0.96 | > 16
7 | NCI-H1876 (small cell lung carcinoma, adherent) | 0.986 | > 5 | 0.983 | > 5.12 | 0.946 | > 200 | 0.881 | > 10 | 0.58 | 5.18 | 0.622 | 8.72 | 0.967 | > 20 | 0.823 | 612 | 0.951 | > 10.2 | 0.827 | 6.33 | 0.976 | > 16
8 | PANC-02-03 (pancreas, adherent) | 0.972 | > 5 | 0.982 | > 5.12 | 0.552 | 17.8 | 0.946 | > 10 | 0.518 | 3.53 | 0.636 | 10.3 | 0.913 | > 20 | 0.472 | 52.8 | 0.975 | > 10.2 | 0.97 | > 10.2 | 0.983 | > 16
9 | UACC-62 (melanoma, adherent) | 0.968 | > 5 | 0.984 | > 5.12 | 0.588 | 21.8 | 0.966 | > 10 | 0.718 | 12.8 | 0.878 | 63.5 | 0.91 | > 20 | 0.583 | 108 | 0.959 | > 10.2 | 0.988 | > 10.2 | 0.988 | > 16
10 | TE-1 (oesophagus, adherent) | 0.965 | > 5 | 0.981 | > 5.12 | 0.696 | 52.1 | 0.711 | 2.93 | 0.471 | 2.55 | 0.573 | 6.7 | 0.945 | > 20 | 0.301 | 15 | 0.941 | > 10.2 | 0.903 | > 10.2 | 0.972 | > 16
11 | LB771-HNC (head and neck, adherent) | 0.972 | > 5 | 0.981 | > 5.12 | 0.809 | 138 | 0.793 | 5.9 | 0.846 | > 50 | 0.837 | 59.3 | 0.939 | > 20 | 0.62 | 149 | 0.968 | > 10.2 | 0.923 | > 10.2 | 0.982 | > 16
12 | WM-115 (melanoma, adherent) | 0.98 | > 5 | 0.982 | > 5.12 | 0.622 | 29.3 | 0.963 | > 10 | 0.517 | 3.51 | 0.548 | 5.58 | 0.753 | 8.07 | 0.966 | > 1020 | 0.919 | > 10.2 | 0.963 | > 10.2 | 0.9 | > 16

Lines with a small IC50 respond at low doses; a limit (>, <) means that the fit lies beyond the doses tested. AUC sums up the same curve from the lowest dose to the 256-fold higher top dose; values near 1 show little effect. For part of these data: An inferred top dose is not printed in the source and was worked back from the curve model. For part of these data: Drugs with an entry number were screened twice under separate entries, and the two screens often disagree.
